Data reported in the antibiotic and cytotoxicity screens of Wong et al. (2023).
Some of the results follow.

These compounds were tested on HepG2 (assay: cytotoxicity call (relative viability < 0.9)). Details: 10 µM.

| SMILES | cytotoxicity call |
| --- | --- |
| COc1ccc(CN(C)C[C@H]2OCCCC[C@@H](C)Oc3ccc(NC(=O)CCC(F)(F)F)cc3C(=O)N([C@@H](C)CO)C[C@@H]2C)cc1 | inactive |
| O=C(C[C@@H]1CC[C@H]2[C@@H](COC[C@H](O)CN2C(=O)c2cccnc2)O1)NCC1CC1 | inactive |
| Cc1ccc(C2OC(CO)C(O)C(O)C2O)cc1Cc1ccc(-c2ccc(F)cc2)s1 (stereo unspecified) | inactive |
| COc1ccc([Si](C)(C)[C@@H]2[C@@H](CCO)O[C@]3(C(=O)N(Cc4cccc(N5CCCCC5=O)c4)c4ccccc43)[C@H]2C)cc1 | inactive |
| C[C@@H]1CN([C@H](C)CO)C(=O)c2cc(NC(=O)CCN3CCOCC3)ccc2O[C@H]1CN(C)S(=O)(=O)c1ccc(Cl)cc1 | inactive |
| CC(C)NC(=O)N(C)C[C@@H]1OCCCC[C@H](C)Oc2ccc(NC(=O)C3CCCCC3)cc2C(=O)N([C@@H](C)CO)C[C@@H]1C | inactive |
| OCC1(O)OCC(O)C(O)C1O (stereo unspecified) | inactive |
| Cc1ccc(S(=O)(=O)N(C)C[C@@H]2OCCCC[C@@H](C)Oc3ccc(NS(C)(=O)=O)cc3C(=O)N([C@H](C)CO)C[C@H]2C)cc1 | inactive |
| C[C@H]1CN([C@@H](C)CO)C(=O)c2cc(NS(=O)(=O)c3ccc(Cl)cc3)ccc2O[C@@H]1CN(C)S(C)(=O)=O | inactive |
| C[C@H](CO)N1C[C@H](C)[C@@H](CN(C)Cc2ccc(Cl)c(Cl)c2)OCCCC[C@H](C)Oc2ccc(NC(=O)Nc3ccc(C(F)(F)F)cc3)cc2C1=O | active |
| COc1ccc(NC(=O)N(C)C[C@@H]2Oc3c(NC(=O)c4cc(C)nn4C)cccc3C(=O)N([C@H](C)CO)C[C@H]2C)cc1 | inactive |
| Cc1ccccc1-n1ccc(=O)[nH]c1=O | inactive |
| Cc1ccc(S(=O)(=O)N(C)C[C@H]2Oc3ccc(NS(C)(=O)=O)cc3C(=O)N([C@@H](C)CO)C[C@H]2C)cc1 | inactive |
| CCOC(=O)[C@H]1CCCCN1 | inactive |
| N=C(N=C(N)N)Nc1cc(-c2cccs2)n[nH]1 | inactive |
| C[C@@H]1CN([C@@H](C)CO)C(=O)c2cc(NC(=O)CCC(F)(F)F)ccc2O[C@@H](C)CCCCO[C@@H]1CN(C)S(=O)(=O)c1ccc(F)cc1 | inactive |
| C[C@H](CO)N1C[C@H](C)[C@H](CN(C)C(=O)Nc2ccccc2)Oc2ccc(NS(=O)(=O)c3cn(C)cn3)cc2C1=O | active |
| C[C@@H]1CN([C@@H](C)CO)C(=O)c2cc(NS(C)(=O)=O)ccc2O[C@@H]1CN(C)C(=O)Nc1ccc(F)cc1 | inactive |
| CC(C)N1CC=C[C@@]23O[C@@H]4C=CCOC(=O)[C@@H]4[C@H]2C(=O)N([C@@H](C)CO)[C@@H]3C1=O | inactive |
| C=CCOC(=O)[C@@H]1[C@H]2C(=O)O[C@H](c3ccccc3)[C@H](c3ccccc3)N2[C@H](c2ccc(OCCOC(=O)[C@H]3C[C@H]4C(=O)NCC(=O)N4[C@H]3c3ccc(O)cc3)cc2)[C@@]12C(=O)Nc1ccc(I)cc12 | inactive |
| NCC1OC(OC2C(N)CC(N)C(OC3OC(CO)C(O)C(N)C3O)C2O)C(N)CC1O (stereo unspecified) | inactive |

What follows are compounds tested on S. aureus RN4220 (assay: growth inhibition call (relative growth <= 0.2)). Details: 50 µM.

| SMILES | growth inhibition call |
| --- | --- |
| COC(=O)C1CCN(S(=O)(=O)c2c(C)n(C)c(=O)n(C)c2=O)CC1 | inactive |
| C[C@@H]1CCCCO[C@@H](CN(C)C(=O)Nc2ccccc2)[C@H](C)CN([C@@H](C)CO)C(=O)c2cc(NS(=O)(=O)c3cccs3)ccc2O1 | inactive |
| C[C@@H]1CN([C@H](C)CO)C(=O)c2cc(NC(=O)Nc3ccc(C(F)(F)F)cc3)ccc2O[C@@H](C)CCCCO[C@H]1CN(C)C(=O)Nc1ccc(C(F)(F)F)cc1 | inactive |
| O=C(C[C@@H]1C=C[C@@H](NC(=O)CN2CCOCC2)[C@H](CO)O1)NC1CCCCC1 | inactive |
| C[C@H]1CN([C@@H](C)CO)C(=O)c2cccc(NC(=O)c3ccncc3)c2O[C@H]1CN(C)Cc1ccc(Oc2ccccc2)cc1 | inactive |
| C[C@@H]1CCCCO[C@@H](CN(C)C)[C@H](C)CN([C@H](C)CO)C(=O)c2cc(NS(=O)(=O)c3cn(C)cn3)ccc2O1 | inactive |
| O=C(C[C@@H]1CC[C@H]2[C@@H](COC[C@@H](O)CN2C(=O)Nc2cccc(Cl)c2)O1)NCCCN1CCOCC1 | active |
| C[C@@H]1CN([C@H](C)CO)C(=O)c2c(c3ccccc3n2C)-c2ccccc2CO[C@@H]1CN(C)Cc1cccc(F)c1 | inactive |
| C[C@@H]1CCCCO[C@H](CN(C)S(=O)(=O)c2cccs2)[C@@H](C)CN([C@@H](C)CO)C(=O)c2cc(NC(=O)Nc3ccc4c(c3)OCO4)ccc2O1 | inactive |
| O=C(C[C@H]1CC[C@@H]2[C@H](COC[C@H](O)CN2S(=O)(=O)c2ccccc2)O1)N[C@@H]1CCN(Cc2ccccc2)C1 | inactive |
| CC1(C)CC(Nc2ccc(Nc3ccccc3)cc2)CC(C)(C)N1 | inactive |
| C[C@@H]1CCCCO[C@@H](CN(C)C(=O)CCCN(C)C)[C@H](C)CN([C@@H](C)CO)C(=O)c2cc(NC(=O)Nc3ccc(F)cc3)ccc2O1 | inactive |
| C[C@@H]1CCCCO[C@H](CN(C)S(=O)(=O)c2ccc(Cl)cc2)[C@@H](C)CN([C@@H](C)CO)C(=O)c2cc(NC(=O)Cc3ccccc3)ccc2O1 | inactive |
| Cc1noc(C)c1NC(=O)N(C)C[C@@H]1OCCCC[C@@H](C)Oc2ccc(NC(=O)CCC(F)(F)F)cc2C(=O)N([C@@H](C)CO)C[C@H]1C | inactive |
| O=C(C[C@H]1CC[C@H]2[C@@H](COC[C@@H](O)CN2C(=O)c2ccc3c(c2)OCO3)O1)NC1Cc2ccccc2C1 | inactive |
| C[C@@H]1CCCCO[C@@H](CN(C)C(=O)Nc2cccc3ccccc23)[C@@H](C)CN([C@@H](C)CO)C(=O)c2cc(NC(=O)c3ccccc3)ccc2O1 | inactive |
| Cl.NCCCCC(N)C(=O)O (stereo unspecified) | inactive |
| C[C@@H]1CN([C@@H](C)CO)C(=O)Cc2cc(NC(=O)Nc3cccc4ccccc34)ccc2O[C@H]1CN(C)Cc1ccc(Cl)c(Cl)c1 | inactive |
| C[C@@H]1CN([C@H](C)CO)C(=O)c2cc(NC(=O)Nc3ccc(F)cc3)ccc2O[C@@H]1CN(C)C(=O)Nc1ccc(C(F)(F)F)cc1 | inactive |
| COc1ccc(CN(C)C[C@H]2OCCCC[C@@H](C)Oc3ccc(NC(=O)CCC(F)(F)F)cc3C(=O)N([C@@H](C)CO)C[C@@H]2C)cc1 | inactive |

| SMILES | growth inhibition call |
| --- | --- |
| O=C(C[C@@H]1CC[C@H]2[C@@H](COC[C@H](O)CN2C(=O)c2cccnc2)O1)NCC1CC1 | inactive |
| Cc1ccc(C2OC(CO)C(O)C(O)C2O)cc1Cc1ccc(-c2ccc(F)cc2)s1 (stereo unspecified) | inactive |
| COc1ccc([Si](C)(C)[C@@H]2[C@@H](CCO)O[C@]3(C(=O)N(Cc4cccc(N5CCCCC5=O)c4)c4ccccc43)[C@H]2C)cc1 | inactive |
| C[C@@H]1CN([C@H](C)CO)C(=O)c2cc(NC(=O)CCN3CCOCC3)ccc2O[C@H]1CN(C)S(=O)(=O)c1ccc(Cl)cc1 | inactive |
| CC(C)NC(=O)N(C)C[C@@H]1OCCCC[C@H](C)Oc2ccc(NC(=O)C3CCCCC3)cc2C(=O)N([C@@H](C)CO)C[C@@H]1C | inactive |
| OCC1(O)OCC(O)C(O)C1O (stereo unspecified) | inactive |
| Cc1ccc(S(=O)(=O)N(C)C[C@@H]2OCCCC[C@@H](C)Oc3ccc(NS(C)(=O)=O)cc3C(=O)N([C@H](C)CO)C[C@H]2C)cc1 | inactive |
| C[C@H]1CN([C@@H](C)CO)C(=O)c2cc(NS(=O)(=O)c3ccc(Cl)cc3)ccc2O[C@@H]1CN(C)S(C)(=O)=O | inactive |
| C[C@H](CO)N1C[C@H](C)[C@@H](CN(C)Cc2ccc(Cl)c(Cl)c2)OCCCC[C@H](C)Oc2ccc(NC(=O)Nc3ccc(C(F)(F)F)cc3)cc2C1=O | inactive |
| COc1ccc(NC(=O)N(C)C[C@@H]2Oc3c(NC(=O)c4cc(C)nn4C)cccc3C(=O)N([C@H](C)CO)C[C@H]2C)cc1 | inactive |
| Cc1ccccc1-n1ccc(=O)[nH]c1=O | inactive |
| Cc1ccc(S(=O)(=O)N(C)C[C@H]2Oc3ccc(NS(C)(=O)=O)cc3C(=O)N([C@@H](C)CO)C[C@H]2C)cc1 | inactive |
| CCOC(=O)[C@H]1CCCCN1 | inactive |
| N=C(N=C(N)N)Nc1cc(-c2cccs2)n[nH]1 | inactive |
| C[C@@H]1CN([C@@H](C)CO)C(=O)c2cc(NC(=O)CCC(F)(F)F)ccc2O[C@@H](C)CCCCO[C@@H]1CN(C)S(=O)(=O)c1ccc(F)cc1 | inactive |
| C[C@H](CO)N1C[C@H](C)[C@H](CN(C)C(=O)Nc2ccccc2)Oc2ccc(NS(=O)(=O)c3cn(C)cn3)cc2C1=O | inactive |
| C[C@@H]1CN([C@@H](C)CO)C(=O)c2cc(NS(C)(=O)=O)ccc2O[C@@H]1CN(C)C(=O)Nc1ccc(F)cc1 | inactive |
| CC(C)N1CC=C[C@@]23O[C@@H]4C=CCOC(=O)[C@@H]4[C@H]2C(=O)N([C@@H](C)CO)[C@@H]3C1=O | inactive |
| C=CCOC(=O)[C@@H]1[C@H]2C(=O)O[C@H](c3ccccc3)[C@H](c3ccccc3)N2[C@H](c2ccc(OCCOC(=O)[C@H]3C[C@H]4C(=O)NCC(=O)N4[C@H]3c3ccc(O)cc3)cc2)[C@@]12C(=O)Nc1ccc(I)cc12 | inactive |
| NCC1OC(OC2C(N)CC(N)C(OC3OC(CO)C(O)C(N)C3O)C2O)C(N)CC1O (stereo unspecified) | active |
